Where “and” joins values, the source holds several entries; their conditions need not be identical. Equal values may be shown once. Hit rate of the full screen: of about 220,000 compounds, about 16,000 (7.3%) were called active. This list was built around the results that the source calls inconclusive (neither active nor inactive); the mix of calls is not that of the screen. Calls follow the shape of the dose curve; as a rule, active = well fitted inhibition curve with a large enough effect (not every such curve was filed as active); inconclusive = small, poorly fitted or top-dose-only effect, or another doubt; inactive = no such curve, though single readings can be large or run the other way. Where the call is inconclusive, the potency comes from a doubtful curve fit. The source holds several records for some structures; these can differ, active in one and inactive in another.
molecular target: Aldehyde dehydrogenase 1A1 (Homo sapiens) (UniProt P00352); assay: qHTS Assay for Inhibitors of Aldehyde Dehydrogenase 1 (ALDH1A1); details: Purified ALDH1A1, NADH fluorescence, propionaldehyde substrate; series mostly up to 75.3 µM;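 as to activity, negative = inhibition: plate controls were no enzyme wells and a reference inhibitor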
Potency is read from the fitted curve at half-maximal effect; tags tell the direction and shape of the fitted curve.

Chain of UniProt P00352 (P00352 whole entry, looked up): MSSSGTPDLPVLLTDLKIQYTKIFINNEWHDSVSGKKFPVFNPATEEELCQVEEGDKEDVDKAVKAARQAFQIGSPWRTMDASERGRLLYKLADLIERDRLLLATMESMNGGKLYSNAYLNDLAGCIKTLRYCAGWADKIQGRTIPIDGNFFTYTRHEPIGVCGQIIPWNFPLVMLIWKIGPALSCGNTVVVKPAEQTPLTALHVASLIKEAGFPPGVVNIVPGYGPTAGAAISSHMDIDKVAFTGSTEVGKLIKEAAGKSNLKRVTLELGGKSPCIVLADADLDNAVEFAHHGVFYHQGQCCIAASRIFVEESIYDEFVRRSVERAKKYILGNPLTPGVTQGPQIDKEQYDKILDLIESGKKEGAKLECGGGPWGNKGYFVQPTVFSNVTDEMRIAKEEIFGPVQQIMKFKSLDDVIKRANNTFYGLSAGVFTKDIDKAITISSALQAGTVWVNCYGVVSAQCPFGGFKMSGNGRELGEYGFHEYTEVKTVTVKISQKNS

Structure (SMILES)	Potency	activity, negative = inhibition
N#C/C(=C\c1ccc(O)c(O)c1)C(N)=S	active: 8.91 µM and active: 2.24 µM	–
O=C(OCC(=O)c1cccs1)C1=COCCO1	active: 14.1 µM	–
O=C(CNC(=O)c1cccc(Cl)c1)Nc1ccc(Br)cc1C(=O)c1ccccc1	inconclusive: 20 µM [inhibitor, single point]	–
Cc1ccc(C2NC(=S)NC(c3ccc(C)cc3)C23C(=O)NC(=O)NC3=O)cc1 (stereo not given)	inactive	–
O=c1cc(CN2CC=C(c3ccccc3)CC2)c2c(ccc3ccccc32)o1	inactive	–
O=C(Nc1cccc(OC(=O)N2CCCCC2)c1)N1CCOCC1	inactive	–
CCC1(CC)C(=O)NC(=O)NC1=O	inactive	–
CCCC[C@H](CN(N=O)[C@@H](Cc1ccccc1)CN(C)N=O)N(CCc1ccccc1)N=O	inconclusive: 15.8 µM [inhibitor, partial curve]	–
CC(=O)Nc1ccccc1C(=O)OCc1ccc(C(=O)c2ccccc2)cc1	inconclusive: 25.1 µM [inhibitor, single point]	–
O=NO	inactive and active: 11.2 µM	–
CCN1C(=O)C(=Cc2ccc(C)s2)C(=O)N(CC)C1=S	active: 7.08 µM	–
C[N+]1([O-])CCC[C@@H]1c1cccnc1 (stereo not given in full)	inactive	–
COc1cc(C=C2C(=O)NC(=O)NC2=O)ccc1O	active: 18.9 µM	–
COc1ccc2c(c1)CC[C@@H]1[C@@H]2CC[C@]2(C)[C@@H](NCCCCCCN3C(=O)C=CC3=O)CC[C@@H]12	inactive	–
CC(Cl)Cl	inconclusive: 12.6 µM [inhibitor, partial curve]	–
CN[C@@H]1C[C@H](c2ccc(Cl)c(Cl)c2)c2ccccc21	inactive	–
C=C/C(=C/C(=O)C[C@H](C)C[C@@H](C)CC[C@H](O)[C@H](C)C(=O)C[C@@H](O)[C@H](C)[C@@H](C)OC(=O)C[C@@H](O)C1=C(C)C(=O)OC1=O)CC	inconclusive: 3.55 µM [inhibitor, single point]	–
COc1cc(C(c2c(C)[nH]n(-c3ccccc3)c2=O)c2c(C)[nH]n(-c3ccccc3)c2=O)cc(OC)c1OC	inactive	–
COc1ccc(C2CC(c3cccs3)=NN2c2nc(C)c(C(C)=O)s2)cc1OC (stereo not given)	inconclusive: 25.1 µM [inhibitor, partial curve]	–
C[C@H]1OC[C@@H](C[N+](C)(C)C)O1	inactive	–
O=C(NC1(C(F)(F)F)Oc2ccccc2O1)N1CCC2(CC1)OCCO2	inconclusive: 35.5 µM [inhibitor, single point]	–
COc1cc2c(cc1O)C[C@H]1c3c(cc(O)c(OC)c3-2)CCN1C	inconclusive: 10 µM [inhibitor, partial curve]	–
NNC(N)=S	inconclusive: 39.8 µM [inhibitor, single point]	–
COc1ccc(CN2CCN(C(=O)COc3cccc(C)c3)CC2)c(OC)c1	inconclusive: 39.8 µM [inhibitor, single point]	–

Structure (SMILES)	Potency	activity, negative = inhibition
CCC[CH2][Sn]([Cl])([Cl])[Cl]	inconclusive: 28.2 µM [inhibitor, partial curve]	–
CCCCCCN=C(C)c1c(O)n(Cc2ccccc2)c(=O)[nH]c1=O	inactive	–
Cc1ccc(C2(c3ccc(C)c(O)c3C)CCN(C)CC2)c(C)c1O	–	inactive: -1.55% [at 13.5 µM]
CC(C)CCCC1(C)C=Cc2c(O)c3c(c(CCC(C)C)c2O1)OC12C(CC4CC1C(C)(C)OC2(CCC(C)C(=O)O)C4O)C3=O (stereo not given)	inconclusive: 37.7 µM [inhibitor, single point]	–
CCN1CC2(COC(=O)c3ccccc3N)CCC(OC)C34C5CC6C(OC)CC(O)(C5C6OC)C(O)(C(OC)C23)C14 (stereo not given)	inconclusive: 31.6 µM [inhibitor, single point]	–
COc1ccc2c(c[n+](C)c3c4cc5c(cc4ccc23)OCO5)c1OC	inconclusive: 22.4 µM [inhibitor, partial curve] and inconclusive: 15.8 µM [inhibitor, partial curve] and inconclusive: 25.1 µM [inhibitor, partial curve]	–
Cc1cc(C=C2C(=O)N(C)C(=S)N(C)C2=O)c(C)n1-c1cccnc1	active: 11.2 µM	–
COc1cccc(CN2CCN(C(=O)COc3ccc4ccccc4c3)CC2)c1	active: 25.1 µM	–
Cc1c(Cc2ccccc2)c(=O)oc2cc(OCc3ccc(C(=O)O)cc3)ccc12	inconclusive: 25.1 µM [inhibitor, partial curve]	–
COc1ccc(C2=NCc3nnc(C)n3-c3ccc(Cl)cc32)cc1Cl	inconclusive: 0.199 µM [inhibitor, full curve, poor fit]	–
COC(=O)C(O)C(O)(CCC(C)C)C(=O)OC1C(OC)=CC23CCCN2CCc2cc4c(cc2C13)OCO4 (stereo not given)	inactive	–
CNc1ccc2oc(C[C@H]3O[C@@]4(CC[C@H]3C)O[C@H]([C@H](C)C(=O)c3ccc[nH]3)[C@H](C)C[C@H]4C)nc2c1C(=O)O	inconclusive: 20 µM [inhibitor, partial curve]	–
COc1ccc(CN2CCN(c3ccccc3F)CC2)c(OC)c1	inactive	–
CCN(CC)c1ncnc2c1ncn2[C@@H]1O[C@H](COP(=O)(O)OP(=O)(O)C(Br)(Br)P(=O)(O)O)[C@@H](O)[C@H]1O	inactive	–
C=CCN1C(=O)/C(=C/c2cc(C)n(-c3ccccn3)c2C)C(=O)NC1=S	inconclusive: 39.8 µM [inhibitor, single point]	–
CCC(=O)c1c(O)n(C2CCCCCC2)c(=O)[nH]c1=O	active: 25.1 µM	–
O=C1NC(=O)N(c2ccc3c(c2)OCO3)C(=O)/C1=C/c1cccs1	inconclusive: 22.4 µM [inhibitor, single point]	–
COC(C/C=C/C=C/CC/C=C\CC(C)/C=C\C(=C/C(=O)O)CC(=O)O)/C(C)=C\C=C(/C)C(=O)O (stereo not given)	inactive	–
N#Cc1c(/N=C/C2C(=O)NC(=S)NC2=O)sc2c1CCCC2	active: 22.4 µM	–
CCCn1nnc(NC(=O)COc2ccc(CC)cc2)n1	inconclusive: 31.6 µM [inhibitor, single point]	–
CCc1cccc(CC)c1N(COC)C(=O)CCl	inactive	–
O=C1NC(=O)C(CCc2ccccn2)(Cc2ccc3c(c2)OCO3)C(=O)N1CCc1ccccc1 (stereo not given)	inconclusive: 28.2 µM [inhibitor, single point]	–
COC(=O)c1ccc(COc2cc(C)cc3oc(=O)c4c(c23)CCCC4)o1	inconclusive: 15.8 µM [inhibitor, partial curve]	–
Cc1ccc2c(c1)CC1(CN2C)C(=O)NC(=O)N(c2ccccc2C)C1=O (stereo not given)	inconclusive: 39.8 µM [inhibitor, single point]	–

Structure (SMILES)	Potency	activity, negative = inhibition
CN(C)c1ccc(NC(=O)Oc2ccccc2)cc1	inconclusive: 39.8 µM [inhibitor, single point]	–
COc1cc(N2CCOCC2)ccc1/C=C1\C(=O)NC(=O)N(C2CCCCC2)C1=O	inconclusive: 12.6 µM [inhibitor, partial curve]	–
O=C(O)C(=O)Cc1ccc2c(c1)OCO2	inconclusive: 4.47 µM [inhibitor, single point]	–
COc1ccc(-c2nc(NC(=O)Cn3c(=O)oc4ccccc43)sc2C)cc1	inconclusive: 25.1 µM [inhibitor, single point]	–
N#Cc1ccc(N2CCNCC2)c(F)c1	inactive	–
NC(=O)c1ncn([C@H]2O[C@@H](CO)[C@@H](O)[C@@H]2O)n1	inactive	–
O=[N+]([O-])c1cc([As](=O)(O)O)ccc1O	inactive	–
COC(=O)c1ccc(N2C(=O)CC(N3CCC(O)(c4ccc(Br)cc4)CC3)C2=O)cc1 (stereo not given)	active: 3.16 µM	–
CN1CCN(c2cc(N3CCCCCC3)c(F)cc2[N+](=O)[O-])CC1	inconclusive: 28.2 µM [inhibitor, partial curve]	–
ClC1=C(Cl)C(Cl)(Cl)C(Cl)=C1Cl	active: 28.2 µM	–
O=C(CN1CC=C(c2ccccc2)CC1)NC(=O)NC1CCCCC1	inconclusive: 28.2 µM [inhibitor, single point]	–
Cc1cc(C=O)c(C)n1C(C)C	active: 14.1 µM	–
Cc1ccc(/C=C2\C(=O)NC(=S)N(c3ccc(F)cc3)C2=O)s1	inconclusive: 7.08 µM [inhibitor, single point]	–
C=Cc1ccccc1	inconclusive: 39.8 µM [inhibitor, single point]	–
CCOC(=O)N1CCC(NS(=O)(=O)c2ccc3c(c2)oc(=O)n3C)CC1	inconclusive: 39.8 µM [inhibitor, single point]	–
COc1ccc(CC2C(=O)NC(=O)N(c3ccccc3)C2=O)c(OC)c1 (stereo not given)	inconclusive: 44.7 µM [inhibitor, single point]	–
COc1cc2c3cc1Oc1c(OC)c(OC)cc4c1C(Cc1cccc(c1)Oc1ccc(c(O)c1)CC3N(C)CC2)N(C)CC4 (stereo not given)	inconclusive: 28.2 µM [inhibitor, partial curve]	–
COC(=O)C1C(=O)C=C(Nc2ccc(F)cc2F)CC1c1ccccc1 (stereo not given)	inconclusive: 8.91 µM [inhibitor, partial curve]	–
COc1cc(/C=N/NC(=O)CN2CCCCC2)ccc1OCc1ccccc1	active: 22.4 µM	–
C/C(=N\NC(=O)c1ccncc1)c1c(O)n(-c2ccccc2)c(=O)[nH]c1=O	inconclusive: 39.8 µM [inhibitor, single point]	–
O=C1/C(=C\c2ccc(Cl)c(Cl)c2)N2CCC1CC2	inconclusive: 17.8 µM [inhibitor, partial curve]	–
CC(C)OC(=O)c1c(N)n(Cc2ccco2)c2nc3ccccc3nc12	inconclusive: 39.8 µM [inhibitor, single point]	–

Reference: PubChem BioAssay AID1030 (National Center for Advancing Translational Sciences (NCATS), 2008)
